Data taken from the GPR68 mutational scans of Howard et al. (2025).
Scores with a large standard error are left out. The source holds two more conditions with little spread; they are left out. In variant names, del marks residues removed and ins residues inserted between the two positions. For part of these data: How much ogerin was present is not stated here.

B1: GPR68, Q15743 (parent)
chain: MGNITADNSSMSCTIDHTIHQTLAPVVYVTVLVVGFPANCLSLYFGYLQIKARNELGVYLCNLTVADLFYICSLPFWLQYVLQHDNWSHGDLSCQVCGILLYENIYISVGFLCCISVDRYLAVAHPFRFHQFRTLKAAVGVSVVIWAKELLTSIYFLMHEEVIEDENQHRVCFEHYPIQAWQRAINYYRFLVGFLFPICLLLASYQGILRAVRRSHGTQKSRKDQIQRLVLSTVVIFLACFLPYHVLLLVRSVWEASCDFAKGVFNAYHFSLLLTSFNCVADPVLYCFVSETTHRDLARLRGACLAFLTCSRTGRAREAYPLGAPEASGKSGAQGEEPELLTKLHPAFQTPNSPGSGGFPTGRLA

Legend:
[1] = variants of: B1; assay: cAMP reporter score (Enrich2 score, wild type = 0); higher = more signal; HEK293T, FACS bins
[2] = variants of: B1; assay: surface expression score (Enrich2 score, wild type = 0); higher = more signal; HEK293T, FACS bins

Variant | cAMP reporter score ([1]; pH 5.5) | cAMP reporter score ([1]; pH 6) | cAMP reporter score ([1]; pH 6, modulator: ogerin) | cAMP reporter score ([1]; pH 6.5, modulator: ogerin) | surface expression score [2]
V284_L285del | -0.521 | -0.555 | -1.37 | -0.764 | -1.55
T293F | 0.066 | 0.212 | 0.42 | 0.532 | 0.094
T293E | -0.591 | – | -1.39 | -0.028 | 0.812
T293D | -0.726 | -0.197 | -1.42 | -0.803 | -0.074
T293C | -0.434 | 0.617 | 0.796 | 0.059 | 0.57
T293A | 1.06 | 0.551 | 0.676 | 1.15 | 1.25
D282_V284del | -2.13 | -1.1 | -1.59 | -0.901 | -2.58
T292_T293insGS | -1.64 | -1.17 | -1.23 | -1.43 | 0.229
L285_Y286insGS | -1.34 | -1.27 | -1.48 | -1.36 | -1.83
T292del | -1.17 | -1.17 | -2.04 | -1.47 | -0.453
V289K | -0.014 | – | 0.258 | -0.017 | -1.16
V289I | -0.781 | -0.242 | -0.707 | -0.301 | -0.417
V289L | -0.974 | – | 0.289 | – | 1.81
V289E | -0.242 | -0.514 | -0.892 | -1.29 | -2.65
V289F | -0.096 | – | -0.32 | 0.53 | -0.968
V289H | 0.509 | – | 1.49 | – | -0.596
V289Y | 0.643 | 3.86 | -0.091 | 3.81 | -0.952
V289D | -0.506 | -0.246 | -0.96 | -0.886 | –
V289G | 1.07 | -0.296 | 0.254 | -1.29 | -1.62
V289T | 0.307 | – | 0.968 | 1.37 | -0.43
V289M | 1.61 | 4.96 | 1.81 | – | -0.402
V289A | 0.281 | -0.2 | -0.097 | -0.649 | -0.032

Variant | cAMP reporter score ([1]; pH 5.5) | cAMP reporter score ([1]; pH 6) | cAMP reporter score ([1]; pH 6, modulator: ogerin) | cAMP reporter score ([1]; pH 6.5, modulator: ogerin) | surface expression score [2]
V289W | 0.221 | 2.17 | -0.269 | 0.995 | -1.46
V289C | 2.66 | – | 3.15 | – | 0.887
V289S | 1.71 | 0.605 | 2 | 1.21 | -0.112
V289Q | -0.936 | – | -0.953 | 0.781 | -1.8
V289R | 0.823 | – | -0.292 | -0.442 | -0.812
V289N | 0.705 | – | -0.2 | 0.897 | -0.419
C287V | -0.359 | -1.54 | -0.594 | -1.4 | 0.273
C287T | 0.343 | -0.404 | 0.102 | -1.17 | -0.526
C287K | -0.874 | -1.19 | -1.37 | -0.713 | -1.07
C287I | -0.194 | -0.597 | -0.566 | -0.594 | 0.873
C287Q | 0.544 | -1.15 | 0.009 | 0.262 | -1.57
C287F | -0.918 | 0.304 | -1.34 | -0.815 | -0.025
C287D | -1.4 | -1.81 | -1.4 | -0.731 | -1.63
C287P | -1.56 | -0.831 | -1.49 | -1.28 | -1.73
C287H | 0.237 | 0.451 | -1.14 | -0.685 | -0.562
C287E | 0.118 | 0.257 | -0.47 | -1.09 | -1.54
C287M | -0.946 | – | -0.926 | -1.26 | -0.035
C287W | -1.27 | -0.866 | -1.26 | -1.38 | 0.907
C287R | -1.01 | 0.379 | -1.12 | -0.721 | -0.949
C287N | -0.143 | -0.512 | -0.584 | -0.82 | -1.44
C287G | -0.898 | -1.34 | -1.21 | -0.927 | -1.24
C287Y | -0.837 | -1.3 | -1.44 | -1.44 | 0.376

Variant | cAMP reporter score ([1]; pH 5.5) | cAMP reporter score ([1]; pH 6) | cAMP reporter score ([1]; pH 6, modulator: ogerin) | cAMP reporter score ([1]; pH 6.5, modulator: ogerin) | surface expression score [2]
C287S | -0.103 | – | -0.177 | -0.515 | –
C287A | 0.143 | -0.499 | -0.738 | -0.656 | 0.378
V289_S290insG | -1.1 | -0.946 | -0.942 | -1.14 | -0.068
V280_A281insGS | -0.977 | -0.89 | – | -0.786 | -2.5
S290_E291insGSG | -0.267 | -0.694 | -0.744 | -0.575 | 0.444
L285_C287del | -1.54 | -1.35 | -1.62 | -1.24 | -2.13
S290_T292del | 0.125 | -1.31 | -0.183 | -0.747 | -1.19
C287_V289del | -1.36 | -0.617 | -2.25 | -1.1 | -2.37
V280_A281del | -1.34 | 0.096 | – | 0.177 | -1.11
N278_C279del | -1.85 | -1.1 | -2.07 | -0.527 | -1.85
A281_D282del | -1.45 | -1.11 | -1.55 | -1.6 | -1.94
D282_P283insGS | -1.34 | – | -1.07 | -2.52 | -2.82
E291_T292insGS | -0.944 | – | -1.51 | -0.616 | 0.046
F288_V289insGS | -0.457 | -0.516 | -1.48 | -0.63 | -1.28
A281_P283del | -1.29 | -1.03 | – | 0.169 | -2.61
Y286_C287insGS | -0.65 | -0.556 | -1.06 | -1.17 | –
L285_Y286insG | -1.31 | -1.24 | -2.06 | -1.39 | 0.521
N278S | -0.898 | – | -2.32 | -0.905 | 0.927
N278Q | -0.109 | -0.713 | -0.33 | -0.66 | -0.435
N278C | 0.369 | -0.484 | -0.888 | -0.635 | 1.39
N278G | 0.193 | -0.76 | -0.788 | -0.397 | 0.888
